# Source: the RNAGym collection of RNA variant scans (doi:10.1093/nar/gkz1192)
# Read counts are not given, so values of variants with three or more changes are uncertain.
# B1: CPEB3 Ribozyme (parent)
# chain: UAACAGGGGGCCACAGCAGAAGCGUUCACGUCGCAGCCCCUGUCAGAUUCUGGUGAAUCUGCGAAUUCUGCUGUAUAUCUC
# Variants of: B1
# Test: self-cleavage, relative activity (ratio to wild type); higher = more cleavage; in vitro, sequencing
# Method in brief: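 CPEB3 self-cleaving ribozyme mutant libraries were made by rounds of error-prone PCR, barcoded, and transcribed in vitro with T7 RNA polymerase for 5 hours at 37°C. Cleavage occurred during transcription and a 15 min DNase I step before EDTA stop. RNAs were reverse transcribed with template switching and Illumina-sequenced, with DNA sequencing mapping barcodes to variants. Relative activity is the variant's cleaved/total read fraction divided by wild type's (minimum 5 reads), averaged across three batches.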
row,Variant,self-cleavage
1,UAACAAGGGGCCACAGCAGAAGCGUUCACGUCGCAGCCCCUGUCAGAUUCUGGUGAACAUGCGAAUUCUGCUGUAUAUCUC [G6A U58C C59A],0.3
2,UAACAAGGGGCCACAGCAGAAGCGUCCACGUCGCAGCCCCUGUCAGAUUCCGGUGAAUCUGCGAAUUCAGCUGUAUAUCUC [G6A U26C U51C U69A],0.13
3,UAACAAGGGGCCACAGCAGAAGCGUUCACGUCGCAGCCCCUGUCAGAUUCUGGAGAAUCUGCGAAGUCUGCUGAAUAUCUC [G6A U54A U66G U74A],0.2
4,UAACACGGGGCCUCAGCAGAAGCGUUCACGUCGCGGCCCCUGUCAGUUUCUGGUGAAUCUGCGAAUUCUGCUGUAUAUCUC [G6C A13U A35G A47U],0.12
5,UAACAAGGGGCCACAGCAGAAGCGUCCACGUCGCAGCCCCUGUCAGAUUCUGAUGAAUCUGCUAAUUCUGCUGUAUAUCUC [G6A U26C G53A G63U],0.08
6,UAACAUGGGGCCACGGCAGAAGCGUUCACGUCGCAGCACCUGUCAGACUCUGGUGAUUCUGCGAAUUGUGCUGUAUAUCUC [G6U A15G C38A U48C A57U C68G],0.04
7,UAACAAGGGGCCACAGCAGAAGCGUCCACGUCGCAGCCCCCGUCAGAUUCUGGUGAAUCUGCGAAUUCUGCGGUAUAUCUC [G6A U26C U41C U72G],0.05
8,UAACAAGGGGCCACAGCAGAAGCAUUCACGUCGCAGCCCCUGGCGGAUUCUGGUGAAUCUGCGAAUUCAGCUGUAUACCUC [G6A G24A U43G A45G U69A U78C],0.16
9,UAACAAGGGGCCACAUCGGAAGCGUUCACGUCGCAGCCCCUGUCAGAUUCUGGUGAAUCAGCGAAUUCUGCUGUAUAUCUC [G6A G16U A18G U60A],0.06
10,UAACAAGGGGCCACAGCAGAAGCGUCCACGUCGCAGCCCCUGUCAGAUUAUGGCGAAUCUGCGAAUUCUGCGGUAUAUCUC [G6A U26C C50A U54C U72G],0.2
11,UAACAAGGGGCCACAGCAGAAGCGUUCACGUCGCAGCCCCUGCCAGAUUCUGGUGAAUCUGCGAAUUCCACUGUAUGACUC [G6A U43C U69C G70A A77G U78A],0.04
12,UAACAAGAGGCCACAGCAGAAGCGUUCACGUCGCGGCCCCUGUCGGAUUCUGGUGACUCUGCGAAUUCUGCUGUAUAUCUC [G6A G8A A35G A45G A57C],0.06
13,UAACAUGGGGCCUCAGCAGAAGCGUUCACGUCGCAGCCCCUGUCAGAUUCUGGUGAAUCUGCGAGCUCUGCUGUAUAUCUC [G6U A13U A65G U66C],0.07
14,UAACAAGGGGCCACAGCAGAAGCGUUCACGUCGCAGCCCCUGUCAGAUUCUGGAGGAUCUGCGAAUUCUGCUGUAUAUCUC [G6A U54A A56G],0.1
15,UAACAAGGGGCCACAGCAGAAGCGUUCACGUCGCAGCCCCUGUCAGAUUCUGGUGAAUCUGCGAAUUCUGCAGUAUAUCCC [G6A U72A U80C],0.34
16,UAACAAGGGGCCACAGCAGAAGCGUUCACGUCACAGCCCCUGUCAGAUUCUGGUGAAUCCGCGAAUUCUGCUGUAUAUCUC [G6A G33A U60C],0.07
17,UAACAUGGGGCCGCAGCAGAAGCGUUCACGUCGCAGCCCCUGUCAGAUUCUCGUGAAUCUGCGAAUUCUGCUGUAUAUCUC [G6U A13G G52C],0.21

row,Variant,self-cleavage
1,UAACAAGGGGCCACAGCAGAAGCGUUCACGCCGCAGCCCCUGUCCGAUUCUGGUGAACCUGCGAAUUCUGCCCUAUAUCUC [G6A U31C A45C U58C U72C G73C],0.11
2,UAACACGGGGCCACAGCAGAUGCGUCCACGUCGCAGCCCCAGUCAGACUCUGGUGAAUCUGCGAAUUCUGCUGUGUAUCUC [G6C A21U U26C U41A U48C A75G],0.05
3,UAACAAGGGGCCACAGCAGAAGCGUCCACGUCGCAGCCCCUGUCAGACUCUGGAGAAUCUGCGAAUUCUGCUGUAUAUCUC [G6A U26C U48C U54A],0.06
4,UAACACGGGGCCACAGCAGAAGCGCUCACGUCGCGGCCCCUGUCAGAUUCUGGUGAAUCUGCGAAUUCUGCUGUAUAUCUC [G6C U25C A35G],0.17
5,UAACACGGGGCCCCAGCAAAAGCGUUCACGUCGCAGCCCCUGUCAGAUUCUGGUGAAUCAGCGAAUUCUGCUGUAUAUCUC [G6C A13C G19A U60A],0.1
6,UAACAUGGGGCCUCAGCAGAAGCGUUCACGUCGCAGCCCCUGUCAGAUUCUGGUGAAUCUGCGAAUUCUGCAGUAUAUCUC [G6U A13U U72A],0.09
7,UAACACGGGGCCACAGCAGAAGCGUCCUCGUCGCAGCCCCUGUCAGGCUCUGGUGAUUCUGCGAAUUCUGCUGUAUAUCUC [G6C U26C A28U A47G U48C A57U],0.58
8,UAACAAGGGGCCACAGCAGAAGCGUACACGUCGCGGCCCCUGUCAGAUACUGGUGAACCAGCGAAUUCUGCUGUAUAUCUC [G6A U26A A35G U49A U58C U60A],0.14
9,UAACAAGGGGCCACAGCAGAAGCGUUCACGUCGCAGCCCCUGUCAGAUUCUGAUGAAUCUGCGAAUUCGGCUGUAUAUCAC [G6A G53A U69G U80A],0.09
10,UAACAAGGAGCCACAGCAGAAGCGUUCACGUCGCAGCCCCUGUCAGAUUCUGGUGAGUCAGCGAAUUCUGCUGUAUAUCUC [G6A G9A A57G U60A],0.05
11,UAACACGGGGCCACAGCGGAAGCGUUCACGUCGCAGCCCCUGUCAGAUUCUGGCGAAUCUGCGAACUAUGCCGUAUAUCUC [G6C A18G U54C U66C C68A U72C],0.09
12,UAACAAGGGACCACAGCAGAAGCGUUCACGCCGCAGCCCCUGUCAGAUUCUGGUGAAUCUGCGAAUUCUGCUGUAUAUCUC [G6A G10A U31C],0.07
13,UAACAAGAGGCCGCAGCAGAAGCGUUCACGUCGCAGCCCCUGUCAGAUUCUGGUGAAUCUGCGAAAUCUGCUGUAUACCUC [G6A G8A A13G U66A U78C],0.08
14,UAACAAGGGGCCACAGCAGAAGCGUUCACGUCGCAGCCCCUGUCAGAUUCUGGUGAAUCUGCGAAUUCUGCUGAGUAUCUC [G6A U74A A75G],0.51
15,UAACAAGGGGCCACAGCAGAAGCGUUCACGACGCAGCCCCUGUCAGAUUCUGGCGAAUCAGCGAACUCAGCUGUAUAUCUC [G6A U31A U54C U60A U66C U69A],0.06
16,UAACAUGGGGCCACGGCAGAAGCGUUCACGUCGCAGCCCCUGUCAGAUUCUAGUGAAUCUGCGAAUCCUGCUGUAUAUCUC [G6U A15G G52A U67C],0.12
17,UAACAUGGGGCCACGGCAGGAGCGUUCACGUCGCAGCCCCUGUCAGAUUCUGGCGAAUCCGCGUAUUCUGCUGUAUAUCUC [G6U A15G A20G U54C U60C A64U],0
